Laboratory results taken from patent publication US20110182903A1, “NOVEL SOLUBLE CD83 POLYPEPTIDES, FORMULATIONS AND METHODS OF USE” (priority 2008, published 2011).

Key:
[1] = Forced-degradation study, SEC-HPLC; format: physicochemical
Protocol: A force-degradation study with lot 021 of wild type hCD83ext stock solution (frozen aliquots in PBS pH 7.6, ˜6 mg CD83/mL) was performed as follows. Several aliquots were thawed and combined. Solutions were prepared as described in the table below:
At the conclusion of the stated exposure time, acidic and basic samples were neutralized. All samples were stored at −20° C. until analyzed using SE-HPLC and isoelectric focusing (IEF) gels.

[2] = pH degradation rate study, SE-HPLC; format: physicochemical
Protocol: To further investigate the role of pH and its influence on protein stability, wild-type hCD83ext (lot 021 in PBS at pH 7.6) was freshly thawed and analyzed (first row of Table 6) or stored at room temperature and 2-8° C., at pH's of 4, 5, 6, 7, 8 and 9. Samples were kept at −70° C. until analyzed, after 1,2, 4 and 10 days of storage. These samples were then analyzed by SEC HPLC (Table 6) or using by SDS-PAGE Bioanalyzer (under reduced and non-reduced conditions; FIGS. 31-35).

[3] = Acid 3 hrs (50 mM HCl, ambient), listed as wild type hCD83ext
[4] = Acid 24 hrs (50 mM HCl, ambient), listed as wild type hCD83ext
[5] = Base 3 hrs (50 mM NaOH, ambient), listed as wild type hCD83ext
[6] = Base 24 hrs (50 mM NaOH, ambient), listed as wild type hCD83ext
[7] = Dark control (wrapped in foil, light chamber 5 days), listed as wild type hCD83ext
[8] = Heat 3 hrs (70° C.), listed as wild type hCD83ext
[9] = Heat 24 hrs (70° C.), listed as wild type hCD83ext
[10] = Light 1 day (D65/ID65 light source), listed as wild type hCD83ext
[11] = Light 5 days (D65/ID65 light source), listed as wild type hCD83ext
[12] = Oxidation 0.12% peroxide, ambient 3 hours, listed as wild type hCD83ext
[13] = Oxidation 1.2% peroxide, ambient 3 hours, listed as wild type hCD83ext
[14] = Freshly prepared on day of analysis, 0 days (PBS pH 7.6), listed as wild-type hCD83ext
[15] = Freshly prepared on day of analysis, 0.35 days, listed as wild-type hCD83ext

B1: hCD83ext-wt: recombinant human sCD83 (CD83 extracellular domain) purified from E. coli, wild type form, SEQ ID NO:5 (protein)
chain: GSPGTPEVKVACSEDVDLPCTAPWDPQVPYTVSWVKLLEGGEERMETPQEDHLRGQHYHQKGQNGSFDAPNERPYSLKIRNTTSCNSGTYRCTLQDPDGQRNLSGKVILRVTGCPAQRKEETFKKYRAEI
modifications: Synthetic extracellular domain of human CD83 with the addition of Gly-Ser-Pro-Gly at the N-terminus and Ile at the C-terminus
% AGGREGATE [1, 3]: 4.06% and 4.85% | % FRAGMENTS [1, 3]: 30.45% and 30.94% | % MONOMER [1, 3]: 65.48% and 64.21% | % AGGREGATE [1, 4]: 4.06% and 4.03% | % FRAGMENTS [1, 4]: 18.40% and 18.65% | % MONOMER [1, 4]: 77.55% and 77.33% | % AGGREGATE [1, 5]: 0.66% and 1.00% | % FRAGMENTS [1, 5]: 58.57% and 57.80% | % MONOMER [1, 5]: 40.77% and 41.20% | % AGGREGATE [1, 6]: 24.06% and 23.41% | % FRAGMENTS [1, 6]: 22.15% | % MONOMER [1, 6]: 53.54% and 54.44% | light stability ([1]; D65/ID65 light source 1 or 5 days): light-stable | % AGGREGATE [1, 7]: 36.38% and 35.76% | % FRAGMENTS [1, 7]: 32.25% and 32.89% | % MONOMER [1, 7]: 31.38% and 31.35% | % FRAGMENTS [1, 8]: 32.43% and 32.44% | % MONOMER [1, 8]: 65.96% and 66.07% | % AGGREGATE ([1]; Heat 24 hrs (70° C.)): 0.00% | % FRAGMENTS [1, 9]: 68.07% and 64.55% | % MONOMER [1, 9]: 31.93% and 35.45% | % AGGREGATE [1, 10]: 15.70% and 15.96% | % FRAGMENTS [1, 10]: 38.33% | % MONOMER [1, 10]: 45.88% and 45.71% | % MONOMER ([1]; Light 5 days (D65/ID65 light source)): 27.35% | % AGGREGATE [1, 11]: 35.58% and 35.45% | % FRAGMENTS [1, 11]: 37.07% and 37.20% | % AGGREGATE [1, 12]: 11.48% and 12.53% | % FRAGMENTS [1, 12]: 37.26% and 36.96% | % MONOMER [1, 12]: 51.25% and 50.51% | % AGGREGATE [1, 13]: 9.62% and 9.51% | % FRAGMENTS [1, 13]: 52.99% and 53.03% | % MONOMER [1, 13]: 37.38% and 37.46% | aggregation ([1]; acidic conditions (pH~2)): ~0.4% | % AGGREGATE [2, 14]: 1.98% and 2.20% and 2.13% | % FRAGMENTS [2, 14]: 43.67% and 38.33% and 40.69% | % MONOMER [2, 14]: 54.35% and 59.47% and 57.18% | % AGGREGATE [2, 15]: 6.31% and 6.32% and 6.76% | % FRAGMENTS [2, 15]: 34.09% and 33.85% and 33.38% | % MONOMER [2, 15]: 59.60% and 59.83% and 59.86% | % AGGREGATE ([2]; pH 4, 2-8 C., 1 day): 4.32% | % FRAGMENTS ([2]; pH 4, 2-8 C., 1 day): 43.05% | % MONOMER ([2]; pH 4, 2-8 C., 1 day): 52.63% | % AGGREGATE ([2]; pH 4, 2-8 C., 10 days): 4.20% | % FRAGMENTS ([2]; pH 4, 2-8 C., 10 days): 44.34% | % MONOMER ([2]; pH 4, 2-8 C., 10 days): 51.46% | % AGGREGATE ([2]; pH 4, RT, 1 day): 0.00% | % FRAGMENTS ([2]; pH 4, RT, 1 day): 47.01% | % MONOMER ([2]; pH 4, RT, 1 day): 52.99% | % AGGREGATE ([2]; pH 4, RT, 10 days): 2.45% | % FRAGMENTS ([2]; pH 4, RT, 10 days): 51.56% | % MONOMER ([2]; pH 4, RT, 10 days): 45.99% | % AGGREGATE ([2]; pH 5, 2-8 C., 1 day): 4.92% | % FRAGMENTS ([2]; pH 5, 2-8 C., 1 day): 42.72% | % MONOMER ([2]; pH 5, 2-8 C., 1 day): 52.36% | % AGGREGATE ([2]; pH 5, 2-8 C., 10 days): 6.97% | % FRAGMENTS ([2]; pH 5, 2-8 C., 10 days): 41.55% | % MONOMER ([2]; pH 5, 2-8 C., 10 days): 51.48%

Values joined by “and” are separate entries in the source; they are usually repeats but may differ in a detail not shown here. Equal entries are not always repeated.
